According to patent publication US20210054027:

Tests used:
KFDFCyclic = target: T1, KFDFCyclic
T1 chain: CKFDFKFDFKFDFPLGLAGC

KLDLCyclic = target: T2, KLDLCyclic
T2 chain: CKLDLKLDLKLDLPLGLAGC

B1: Porcine pancreatic elastase (protein)
chain: VVGGTEAQRNSWPSQISLQYRSGSSWAHTCGGTLIRQNWVMTAAHCVDRELTFRVVVGEHNLNQNDGTEQYVGVQKIVVHPYWNTDDVAAGYDIALLRLAQSVTLNSYVQLGVLPRAGTILANNSPCYITGWGLTRTNGQLAQTLQQAYLPTVDYAICSSSSYWGSTVKNSMVCAGGDGVRSGCQGDSGGPLHCLVNGQYAVHGVTSFVSRLGCNVTRKPTVFTRVSAYISWINNVIASN
KFDFCyclic
  enzymatic cleavage of progelator (LCMS, 5 hr): KFDFCyclic and KLDLCyclic (data not shown) were treated with MI-associated enzymes, MMP-9 and elastase to confirm enzyme responsiveness
KLDLCyclic
  enzymatic cleavage of progelator (data not shown): KFDFCyclic and KLDLCyclic (data not shown) were treated with MI-associated enzymes, MMP-9 and elastase to confirm enzyme responsiveness
